# Results: PubChem BioAssay AID1508642 (National Center for Advancing Translational Sciences (NCATS), 2021)
# About 200 (0.47%) of roughly 43,000 compounds were called active. About 12% were inconclusive and are not listed. Calls follow the shape of the dose curve; as a rule, active = well fitted cell-killing curve with a large enough effect; inconclusive = small, poorly fitted or top-dose-only effect, or effect the other way; inactive = flat fitted curve, though single readings scatter. This is one part of the list.
# Assay: Cell viability qHTS assay in S16 Pmp22-F2sN cells; also: nearly all actives have a fitted effect of over 65% in size
# Details: S16 Pmp22-F2sN Schwann cells viability, CellTiter-Glo, 24 h; series mostly up to 57.5 µM; activity change, negative = cytotoxicity: at the top concentration
# Procedure, shortened: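 S16 Pmp22-F2sN Schwann cells (500-1,000/well) in phenol-red-free DMEM with 10% FBS received 23 nL compound by pin tool for 24 h at 37 °C. Viability was then read as CellTiter-Glo luminescence after 15 min at room temperature.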
# % is scaled to controls: 0 for no effect and ±100 for the full control effect.
row,SMILES,"activity change, negative = cytotoxicity"
1,CCOc1ccc(N2CC(NC(=O)C3CCCCC3)CC2=O)cc1 (stereo unspecified),inactive: 1.17%
2,COc1cc(NC(=O)c2nc3nc(C)cc(C(F)F)n3n2)c(OC)cc1Cl,inactive: 1.86%
3,Cc1ccc(CNC(=O)c2ccc(CN3CC(=O)N4CCCCC4C3=O)cc2)cc1 (stereo unspecified),inactive: 19%
4,CCOC(=O)CNC(=O)N1[C@H](c2cccs2)[C@@H](C)C(=O)[C@@H](C)[C@@H]1c1cccs1,inactive: -16.8%
5,Cc1cccc(C)c1-n1ncc(C(=O)NC2CCCC2)c1C1CCN(C(=O)OC(C)(C)C)CC1,inactive: 3.72%
6,CCOc1ccc(NC(=O)NCc2cccn2Cc2ccccc2)cc1,inactive: 4.11%
7,O=C(c1ccc2c(c1)CCN2S(=O)(=O)c1ccc(Cl)cc1)N1CCN(c2ccc(F)cc2)CC1,inactive: -25%
8,Cc1nnc(N2C(=O)c3oc4ccccc4c(=O)c3C2c2ccc(Cl)cc2)s1 (stereo unspecified),inactive: 5.67%
9,Cc1c(C(=O)OC2CCCCCC2)[nH]c2c1C(=O)CC(c1ccc(Cl)cc1)C2 (stereo unspecified),inactive: -0.493%
10,Cc1ccc2c(c1)C(=O)OC(C(=O)Nc1ncc(Cc3ccc(Cl)cc3)s1)C2 (stereo unspecified),inactive: 2.38%
11,O=C(COc1ccc(Cl)cc1Cl)Nc1cccc2cccnc12,inactive: 3.89%
12,COc1ccc(S(=O)(=O)NCC(c2ccc(N(C)C)cc2)N2CCc3ccccc32)cc1OC (stereo unspecified),inactive: -13.1%
13,COc1ccccc1N1CCN(C(=O)c2cnn(-c3ccc(F)cc3F)c2C2CCNCC2)CC1,inactive: 0.531%
14,COc1cccc(C(=O)Nc2ccc3oc(-c4cccc5c(Br)cccc45)nc3c2)c1,inactive: 29.2%
15,Cc1ccc(Nc2nnc(-c3ccc(C)c(S(N)(=O)=O)c3)c3ccccc23)cc1,inactive: -19.9%
16,CN(C)S(=O)(=O)c1ccc(C(=O)NCCSc2c(-c3ccc(Cl)cc3)[nH]c3ccccc23)cc1,inactive: -5.15%
17,Cc1cccc(OCC(=O)Nc2cccc3cccnc23)c1C,inactive: 8.7%
18,COc1ccc(N2CCN(C(=O)CCc3c(C)nc4cc(-c5ccc(OC)cc5OC)nn4c3C)CC2)cc1,inactive: -2.66%
19,CCOC(=O)c1c(NC(=O)c2ccccc2OCC)sc2c1CCC(CC)C2 (stereo unspecified),inactive: 1.52%
20,COc1ccc(Cc2nc3ccc(C(=O)NCc4ccccc4Cl)cc3o2)cc1,inactive: 2.75%
21,Cc1ccc(NC(=O)C2CC(=O)N(c3ccc(OC(C)C)cc3)C2)cc1 (stereo unspecified),inactive: 7.04%
22,CCOC(=O)c1c(C)c(-c2ccccc2)n(CC(=O)NC(CC)Cc2ccccc2)c1C (stereo unspecified),inactive: 8.91%
23,CCN(CC)c1ccc(NC(=O)C2CCN(S(=O)(=O)c3cnc[nH]3)CC2)c(C)c1,inactive: -1.18%
24,CCOc1ccc(CC(=O)NCC(c2cccs2)S(=O)(=O)c2ccc(F)c(C)c2)cc1 (stereo unspecified),inactive: 13.7%

row,SMILES,"activity change, negative = cytotoxicity"
1,O=C(COc1ccc(Cl)cc1)Nc1ccccc1OCc1cc(=O)n2ccccc2n1,inactive: 2.59%
2,CCc1ccc(NC(=O)C(CC)n2c(=O)c(-c3ccccc3NC(C)=O)nc3ccccc32)cc1 (stereo unspecified),inactive: 0.862%
3,CN(Cc1ccccc1)C(=O)CSc1nc(-c2ccc(F)cc2)cc(C(F)(F)F)n1,inactive: 0.413%
4,COCCOC(=O)c1c(-c2ccccc2)c(-c2ccccc2)nn(C)c1=O,inactive: 3.18%
5,CCOc1ccc(CC(=O)Nc2c(C(=O)c3ccccc3)oc3ccc(OC)cc23)cc1OCC,inactive: 8.91%
6,CCc1ccccc1NC(=O)Cn1c(=O)n(Cc2ccc(OC)cc2)c(=O)c2oc3ccccc3c21,inactive: 1.8%
7,CCCC(CCC)C(=O)NC1CC(=O)N(c2ccc3c(c2)OCCO3)C1 (stereo unspecified),inactive: 22.1%
8,Cc1cc(NS(=O)(=O)c2ccc3oc(=O)c4ncn(C)c4c3c2)ccc1Br,inactive: 14.6%
9,Cc1ccc(NC(=O)Cn2c(=O)n(Cc3nc(C)no3)c(=O)c3cc4c(cc32)OCO4)cc1,inactive: 1.7%
10,CC(C)c1ccc(N2C(=O)CSC23C(=O)N(Cc2ccccc2)c2ccccc23)cc1 (stereo unspecified),inactive: 3.25%
11,COc1cccc(CNC(=O)C(C)n2c(=O)cc(-c3ccccc3)c3c(C)nn(C)c32)c1 (stereo unspecified),inactive: 3.21%
12,O=C(/C=C/c1ccccc1Cl)Nc1nc(-c2cccs2)ns1,inactive: -17.6%
13,COc1ccc(NC(=O)N2CCN(S(=O)(=O)c3ccc4c(ccn4C)c3)CC2)c(OC)c1,inactive: 1.72%
14,Cc1nc2c(C(=O)NC(C)c3ccccc3)cnn2c(C)c1Cc1ccccc1 (stereo unspecified),inactive: -21.8%
15,CCC(=O)Nc1nnc(S(=O)(=O)N2CCc3ccccc32)s1,inactive: -5.5%
16,O=C(NCCc1csc(-c2ccc(F)cc2)n1)c1ccc(Br)o1,inactive: 6.78%
17,Cc1ccccc1CN1CCN(CC(=O)NCc2ccccc2Cl)C1=O,inactive: -2.31%
18,Cc1nc2cc(-c3ccccc3)nn2c(C)c1CCC(=O)N1CCN(c2ccccc2)CC1,inactive: 11.8%
19,CCSc1ncc(Cl)c(C(=O)Nc2c(C(=O)c3ccccc3)oc3ccccc23)n1,inactive: 0.203%
20,COc1ccc2oc(-c3ccc(C)c(NC(=O)Cc4ccc(Cl)cc4)c3)nc2c1,inactive: -0.785%
21,O=C(CCNS(=O)(=O)c1ccc2c(c1)CCN2C(=O)C1CC1)Nc1ccc(F)cc1F,inactive: -17.3%
22,COc1ccc(N2CC(NC(=O)c3ccc(S(=O)(=O)N4CCCCC4)cc3)CC2=O)cc1OC (stereo unspecified),inactive: 3.74%
23,Cc1cccc(NC(=O)c2cc(S(=O)(=O)N3CCC4(CC3)OCCO4)ccc2F)c1,inactive: 1.08%
24,COc1cc(OC)cc(-c2nc3nc(C)c(CCC(=O)Nc4cc(F)ccc4F)c(C)n3n2)c1,inactive: 0.112%

row,SMILES,"activity change, negative = cytotoxicity"
1,Fc1ccc2c(c1)NC(c1ccncc1)=NC(c1cccs1)=N2,inactive: 1.36%
2,Cc1c(NC(=O)c2cc(=O)c3cc(Cl)ccc3o2)c(=O)n(-c2ccccc2)n1C,inactive: -1.15%
3,Cc1cccc(-c2nc(Cn3c(SCc4cccc(C(F)(F)F)c4)nc4ccncc43)c(C)o2)c1,inactive: -0.353%
4,CCOCCCn1c(SCC(=O)Nc2ccc(OC)cc2OC)nc2ccccc2c1=O,inactive: 13.6%
5,CCOC(=O)CSc1nc2ccc(NC(=O)c3ccccc3)cc2s1,inactive: 9.77%
6,Cc1ccc(C)c(N2CCN(Cc3nnc(-c4ccccc4)o3)CC2)c1,inactive: -25%
7,COc1cccc(C(=O)c2cn(CC(=O)Nc3cccc(C)c3C)c3nc(C)ccc3c2=O)c1,inactive: 16%
8,CCc1ccc(C(=O)Nc2ccc3nn(-c4ccc(C)c(Cl)c4)nc3c2)cc1,inactive: 8.98%
9,COc1ccc(-c2cn3c(n2)sc2cc(C(=O)Nc4cc(Cl)ccc4C)ccc23)cc1,inactive: 1.08%
10,Cc1cccc(C)c1NC(=O)Cn1nc(C)c2sc3ccccc3c2c1=O,inactive: -15.2%
11,Cc1ccc(CN2CCc3nc(SCC(=O)Nc4cccc(C)c4C)[nH]c(=O)c3C2)cc1,inactive: -2.4%
12,CCOc1ccc(NC(=O)CCS(=O)(=O)c2ccc3c(c2)n(C)c(=O)c(=O)n3C)cc1,inactive: -5.68%
13,CCOc1ccc(NC(=O)CSc2nc(-c3ccc(F)cc3)cc(C(F)(F)F)c2C#N)cc1,inactive: 7.61%
14,Cc1ccc2cccc(NC(=O)C(C)(C)Oc3ccc(Br)cc3)c2n1,inactive: 7.57%
15,CCN(Cc1ccccc1)C(=O)CN1C(=O)COc2ccc(S(=O)(=O)N3CCCCCC3)cc21,inactive: 1.12%
16,CCn1cc2nc(SCc3ccccc3F)n(Cc3ccc(C)cc3)c(=O)c2n1,inactive: 5.83%
17,Cc1ccc(NC(=O)CCS(=O)(=O)c2cccc3nsnc23)c(C)c1,inactive: 16.2%
18,CCOC(=O)c1ccccc1NC(=O)Cn1c2ncccc2c(=O)n1-c1ccccc1,inactive: 17.2%
19,CCC(=O)N1CCc2cc(Br)cc(S(=O)(=O)NCCc3ccccc3)c21,inactive: 18.4%
20,O=C(NCCCN1CCN(c2ccccc2F)CC1)c1nnc(Cc2ccc(Cl)cc2Cl)o1,inactive: 4.16%
21,CCOC(=O)c1c(NC(=O)COc2ccc(F)cc2)sc2c1CCC(C)C2 (stereo unspecified),inactive: 7.85%
22,COc1cccc(CNC(=O)CCNS(=O)(=O)c2ccc3c(c2)oc(=O)n3C)c1,inactive: -19.4%
23,Cc1cc(C)c(Cn2c(C(O)c3ccccc3)nc3ccccc32)c(C)c1 (stereo unspecified),inactive: -6.76%
24,N#C/C(=C\c1ccc(-c2cc(Cl)ccc2Cl)o1)C(=O)Nc1ccccc1C(=O)O,inactive: 0.128%

row,SMILES,"activity change, negative = cytotoxicity"
1,CC(C)(C)C(=O)Nc1cccc(C(=O)OCc2cc(=O)n3nc(C4CCCCC4)sc3n2)c1,inactive: 2.69%
2,O=C(CSc1nc2ccccc2n1Cc1ccccc1Cl)NCc1ccccc1,inactive: -8.01%
3,CCOC(=O)c1[nH]cnc1C(=O)Nc1ccc(F)cc1,inactive: 4.64%
4,CCOC(=O)c1c(-c2ccc(OC)cc2)oc2ccc(OCc3ccc(C(=O)OC)cc3)cc12,inactive: 1.39%
5,CCNc1c(NC(=O)c2cc(OCC)c(OCC)c(OCC)c2)c(=O)oc2ccccc12,inactive: -2.26%
6,COc1cccc(CNC(=O)CCn2cccn2)c1,inactive: -2.42%
7,CCOc1ccc(CCNC(=O)CN(c2ccc(C)cc2)S(=O)(=O)N(C)C)cc1OCC,inactive: 2.81%
8,O=c1c(S(=O)(=O)c2ccccc2)cn(Cc2ccc(F)cc2)c2cc(N3CCCCC3)c(F)cc12,inactive: -3.66%
9,Cc1ccc(C)c(NC(=O)c2cc(S(=O)(=O)NCCC3=CCCCC3)ccc2F)c1,inactive: -12%
10,COc1ccc(CNC(=O)C(C(C)C)N2Cc3ccccc3C2=O)cc1 (stereo unspecified),inactive: -12.7%
11,CCCN(CCC)C(=O)C1CCN(c2ncnc3c2nc2n3CCCCC2)CC1,inactive: 15.8%
12,Cc1ccc(-n2c(=O)c3c(c4cc(C)ccc4n3C)n(CC(=O)Nc3cc(C)cc(C)c3)c2=O)cc1,inactive: -1.01%
13,CC1Cn2cc(C(=O)Nc3cccc(C(F)(F)F)c3)c(=O)c3c(Cl)ccc(c32)O1 (stereo unspecified),inactive: 1.87%
14,COC(=O)c1nnn(CC(=O)Nc2ccc(Br)c(C)c2)c1N,inactive: 2.19%
15,Cc1ccc(-c2onc(C)c2C)cc1S(=O)(=O)NC1CCCCC1,inactive: -6.29%
16,O=C(Cc1ccccc1)Nc1c(C(=O)Nc2ccccc2F)oc2ccccc12,inactive: 15.5%
17,CCc1ccc(-c2[nH]c3c(c2-c2sc(C)c(C(=O)OC)c2O)c(=O)n(C)c(=O)n3C)cc1,inactive: 2.49%
18,COc1ccc(NC(=O)c2ccc(COc3ccccc3OC)o2)cc1OC,inactive: -1.57%
19,CCn1cc(C(=O)NCc2ccccc2)c(=O)c2cc(S(=O)(=O)N3CCCCCC3)ccc21,inactive: -6.57%
20,COc1cccc(CNC(=O)CCC(=O)N2Cc3cccc(OC)c3Oc3ncccc32)c1OC,inactive: 1.5%
21,Cc1c(NC(=O)c2ccccc2F)cccc1-c1nc2cccnc2s1,inactive: 21%
22,O=C(Cn1ncc2c(=O)oc3ccccc3c21)NCc1ccc(Cl)cc1,inactive: 3.39%
23,COc1ccc(N(C)C(=O)CCS(=O)(=O)c2cccc3nsnc23)cc1,inactive: 2.97%
24,COc1cccc2sc(N(Cc3cccnc3)C(=O)C3COc4ccccc4O3)nc12 (stereo unspecified),inactive: -4.99%
